{"source": "PubChem BioAssay AID504333", "about": "(National Center for Advancing Translational Sciences (NCATS), 2011)", "note": "In all, about 360,000 compounds went through this assay and about 16,000 (4.4%) were called active. Inconclusive results, whose numbers are uncertain, are shown with a selection of clear calls. Calls follow the shape of the dose curve; as a rule, active = well fitted inhibition curve with a large enough effect; inconclusive = small, poorly fitted or top-dose-only effect; inactive = no such curve, though single readings can be large or run the other way. Potencies beside an inconclusive call are fits to weak or partial responses and may not hold up. Potency is read from the fitted curve at half-maximal effect; tags tell the direction and shape of the fitted curve."}
{"biological_target": "Bromodomain adjacent to zinc finger domain protein 2B (Homo sapiens) (UniProt Q9UIF8)", "sequence (Q9UIF8 whole entry, looked up, the tested form may be a part)": "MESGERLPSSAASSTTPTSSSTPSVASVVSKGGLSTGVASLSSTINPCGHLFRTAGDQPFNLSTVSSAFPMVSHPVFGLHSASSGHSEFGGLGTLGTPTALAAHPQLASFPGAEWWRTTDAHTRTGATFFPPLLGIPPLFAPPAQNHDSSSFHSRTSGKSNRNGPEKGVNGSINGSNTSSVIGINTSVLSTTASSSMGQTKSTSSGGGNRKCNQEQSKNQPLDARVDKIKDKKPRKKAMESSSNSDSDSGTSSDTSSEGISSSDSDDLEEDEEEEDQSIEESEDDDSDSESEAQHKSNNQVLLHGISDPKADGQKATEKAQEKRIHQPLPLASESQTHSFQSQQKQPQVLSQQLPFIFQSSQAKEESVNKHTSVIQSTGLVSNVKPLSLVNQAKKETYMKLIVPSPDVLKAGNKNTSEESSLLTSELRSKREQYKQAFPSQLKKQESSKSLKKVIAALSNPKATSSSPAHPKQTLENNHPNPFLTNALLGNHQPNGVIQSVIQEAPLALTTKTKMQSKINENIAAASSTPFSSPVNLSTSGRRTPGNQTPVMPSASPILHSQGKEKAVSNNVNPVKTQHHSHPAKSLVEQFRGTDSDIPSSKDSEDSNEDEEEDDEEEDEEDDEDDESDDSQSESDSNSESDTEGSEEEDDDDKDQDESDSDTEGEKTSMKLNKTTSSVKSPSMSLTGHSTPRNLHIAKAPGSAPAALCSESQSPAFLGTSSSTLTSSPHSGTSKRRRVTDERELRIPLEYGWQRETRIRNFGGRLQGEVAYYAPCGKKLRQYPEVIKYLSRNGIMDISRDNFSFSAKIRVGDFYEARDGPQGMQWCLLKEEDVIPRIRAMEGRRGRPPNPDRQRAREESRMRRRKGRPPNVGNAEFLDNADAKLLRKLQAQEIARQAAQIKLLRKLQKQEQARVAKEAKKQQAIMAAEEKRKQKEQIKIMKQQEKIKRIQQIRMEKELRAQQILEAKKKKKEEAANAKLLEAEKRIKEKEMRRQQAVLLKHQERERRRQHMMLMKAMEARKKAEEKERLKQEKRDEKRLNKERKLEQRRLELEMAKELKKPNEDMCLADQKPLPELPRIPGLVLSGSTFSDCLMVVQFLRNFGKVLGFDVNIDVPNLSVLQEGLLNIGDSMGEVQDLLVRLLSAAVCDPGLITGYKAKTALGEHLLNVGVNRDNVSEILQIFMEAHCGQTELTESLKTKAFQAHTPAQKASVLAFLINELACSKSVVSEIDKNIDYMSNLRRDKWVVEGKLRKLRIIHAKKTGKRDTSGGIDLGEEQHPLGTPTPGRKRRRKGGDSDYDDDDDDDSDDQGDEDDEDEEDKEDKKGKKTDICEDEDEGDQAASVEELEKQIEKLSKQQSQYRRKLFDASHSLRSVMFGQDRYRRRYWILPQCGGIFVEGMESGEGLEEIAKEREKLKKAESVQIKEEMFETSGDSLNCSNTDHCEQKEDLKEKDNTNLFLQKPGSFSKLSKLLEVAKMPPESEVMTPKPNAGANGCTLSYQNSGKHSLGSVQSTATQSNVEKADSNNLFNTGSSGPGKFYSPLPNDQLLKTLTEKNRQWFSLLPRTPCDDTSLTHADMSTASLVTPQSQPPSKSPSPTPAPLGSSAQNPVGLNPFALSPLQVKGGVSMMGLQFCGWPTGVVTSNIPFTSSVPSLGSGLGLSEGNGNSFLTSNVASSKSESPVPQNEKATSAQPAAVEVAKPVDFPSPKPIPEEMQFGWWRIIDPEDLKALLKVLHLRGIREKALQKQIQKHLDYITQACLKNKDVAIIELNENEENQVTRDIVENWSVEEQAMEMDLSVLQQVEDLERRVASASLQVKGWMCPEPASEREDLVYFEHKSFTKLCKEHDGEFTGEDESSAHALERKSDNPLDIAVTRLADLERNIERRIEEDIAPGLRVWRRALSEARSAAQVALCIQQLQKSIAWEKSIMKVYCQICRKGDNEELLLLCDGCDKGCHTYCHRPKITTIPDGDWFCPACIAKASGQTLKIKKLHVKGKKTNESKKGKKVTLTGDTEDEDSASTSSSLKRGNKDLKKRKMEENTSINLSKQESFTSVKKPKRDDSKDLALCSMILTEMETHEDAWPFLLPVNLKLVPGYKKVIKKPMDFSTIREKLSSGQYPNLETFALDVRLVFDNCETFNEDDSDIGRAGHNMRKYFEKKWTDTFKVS", "assay": "qHTS Assay for Inhibitors of BAZ2B; also: nearly all actives have a fitted effect of over 60% in size", "conditions": "AlphaScreen BAZ2B-H3K14Ac peptide displacement; series mostly up to 114 µM", "outline": "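Complex of BAZ2B and biotin-H3K14Ac (50 nM apiece) forms over 30 min at RT, then faces library compounds up to 110 uM for another 30 min; AlphaScreen beads added, 20 min dark incubation, luminescence read.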"}
{"smiles": "O=C(c1nc(-c2ccccc2)n(-c2ccccc2)n1)N1CCN(S(=O)(=O)c2ccccc2)CC1", "Potency": "inconclusive: 89.1 µM [inhibitor, single point]"}
{"smiles": "O=C(Cc1nnc(NC(=O)c2ccccc2)s1)N/N=C/c1ccc(O)cc1", "Potency": "inconclusive: 89.1 µM [inhibitor, single point]"}
{"smiles": "COc1ccc(OC)c(C(c2nnnn2CC2CCCO2)N2CCN(C3CCCC3)CC2)c1", "note": "(configuration not stated)", "Potency": "inconclusive: 89.1 µM [inhibitor, single point]"}
{"smiles": "CCCCNc1c(-c2ccc(SC(C)CC)cc2)nc2ccccn12", "note": "(configuration not stated)", "Potency": "inconclusive: 79.4 µM [inhibitor, single point]"}
{"smiles": "Cc1ccc(S(=O)(=O)N2CCCCC2)cc1NC(=O)C1CCC1", "Potency": "inactive"}
{"smiles": "N#Cc1nc(-c2cccs2)oc1NCc1ccco1", "Potency": "inconclusive: 79.4 µM [inhibitor, single point]"}
{"smiles": "Nc1cccn2c(-c3ccc(Cl)cc3)cnc12", "Potency": "active: 50.1 µM"}
{"smiles": "NC(=O)c1sc2nc(-c3ccco3)ccc2c1N", "Potency": "inactive"}
{"smiles": "CC1Cc2ccccc2N1C(=O)Cn1c(=O)oc2cc(S(=O)(=O)N3CCCCC3)ccc21", "note": "(configuration not stated)", "Potency": "inactive"}
{"smiles": "Cc1cn(S(=O)(=O)c2ccc(F)c(Cl)c2)cn1", "Potency": "inactive"}
{"smiles": "CCCCNC(=O)CCc1nc2cccnc2n1Cc1ccc(OC)cc1", "Potency": "inconclusive: 4.47 µM [inhibitor, single point]"}
{"smiles": "CCn1c(=S)sc2c(=O)n(CC(=O)Nc3ccc(OC)c(Cl)c3)c(C)nc21", "Potency": "inactive"}
{"smiles": "Cc1cc(C)c(/C=C/c2onc(C)c2S(=O)(=O)N2CCC(C(=O)Nc3ccc(Cl)cc3C)CC2)c(C)c1", "Potency": "inactive"}
{"smiles": "COc1ccccc1NC(=O)c1ccc(NC(=O)Cc2n[nH]c(=O)c3ccccc23)cc1", "Potency": "inactive"}
{"smiles": "CCN(CC)CCNC(=O)c1ccc(NC(=O)c2ccc(Cl)c(S(=O)(=O)Nc3ccccc3OC)c2)cc1", "Potency": "inactive"}
{"smiles": "CCOc1ccc(-c2nc(CNC(=O)Nc3ccccc3)c(C)o2)cc1", "Potency": "inactive"}
{"smiles": "COc1ccc(CCN2CC(C(=O)Nc3cc(S(C)(=O)=O)ccc3Cl)CC2=O)cc1OC", "note": "(configuration not stated)", "Potency": "inactive"}
{"smiles": "Cc1cc(OCC(=O)OCC(=O)N2c3ccccc3NC(=O)C2(C)C)ccc1Cl", "Potency": "active: 79.4 µM"}
{"smiles": "Cc1ccccc1NC(=O)CSc1nc2ccccc2c2nc(CCn3c(C)nc4ccccc43)nn12", "Potency": "inactive"}
{"smiles": "CC(/C=N/NC(=O)CN1CCN(Cc2ccc(Cl)cc2)CC1)=C\\c1ccco1", "Potency": "inconclusive: 39.8 µM [inhibitor, partial curve]"}
{"smiles": "Cc1cc(C)cc(NC(=O)Cn2c(=O)oc3cc(S(=O)(=O)N4CC(C)CC(C)C4)ccc32)c1", "note": "(configuration not stated)", "Potency": "inactive"}
{"smiles": "Cc1ccc(S(=O)(=O)NC(C)(C)CN2CCC(Cc3ccccc3)CC2)cc1", "Potency": "active: 56.2 µM"}
{"smiles": "Cc1cc(C)n2c(Nc3ccc4c(c3)OCCO4)c(-c3ccco3)nc2n1", "Potency": "inconclusive: 50.1 µM [inhibitor, partial curve]"}
{"smiles": "COC(=O)/C=c1/sc2nc3ccccc3n2c1=O", "Potency": "inconclusive: 89.1 µM [inhibitor, partial curve]"}
{"smiles": "CCCc1cc(=O)[nH]c(SCC(=O)c2cc(C)n(CCC)c2C)n1", "Potency": "inconclusive: 56.2 µM [inhibitor, partial curve, poor fit]"}
{"smiles": "CCOc1ccccc1NC(=O)CSc1nnc2ccc(-c3ccncc3)nn12", "Potency": "inactive"}
{"smiles": "CC(C)c1ccccc1Oc1c(C(F)(F)F)oc2c(CN3CCN(C)CC3)c(O)ccc2c1=O", "Potency": "inactive"}
{"smiles": "Cc1cccc(OCC(=O)NCC(=O)N/N=C/c2ccccc2)c1", "Potency": "inconclusive: 3.98 µM [inhibitor, single point]"}
{"smiles": "CCS(=O)(=O)c1nc(NC(C)=O)n[nH]1", "Potency": "active: 50.1 µM"}
{"smiles": "COc1ccccc1CNC(=O)COC(=O)c1nccnc1N", "Potency": "inconclusive: 79.4 µM [inhibitor, single point]"}
{"smiles": "Cc1ccc(NC(=O)c2nc[nH]c2C(=O)N2CCC(C)CC2)cc1", "Potency": "inconclusive: 89.1 µM [inhibitor, single point]"}
{"smiles": "Cc1ccc(C)n1-c1ccc(N(C)C)cc1", "Potency": "active: 25.1 µM"}
{"smiles": "Cc1cc(C(=O)COC(=O)C2=NNC(=O)CC2)c(C)n1-c1cccc(C(F)(F)F)c1", "Potency": "inconclusive: 89.1 µM [inhibitor, single point]"}
{"smiles": "CCN1CCCC1CNC(=O)c1ccc2c(c1)NC(=O)/C(=C\\c1ccc(OC)c(OC)c1)S2", "note": "(configuration not stated)", "Potency": "active: 25.1 µM"}
{"smiles": "CN(C)CCCNS(=O)(=O)c1ccc(N2CCN(Cc3ccc4c(c3)OCO4)CC2)c([N+](=O)[O-])c1", "Potency": "active: 22.4 µM"}
{"smiles": "CC1(c2nnc(-c3ccncc3)o2)CC(c2ccc([N+](=O)[O-])cc2)=NO1", "note": "(configuration not stated)", "Potency": "inconclusive: 89.1 µM [inhibitor, single point]"}
{"smiles": "Nc1c(Cl)cc(C2=NCCn3c2c2ccccc2[n+]3[O-])cc1Cl", "Potency": "inconclusive: 89.1 µM [inhibitor, single point]"}
